Results published in PubChem BioAssay AID2147 (National Center for Advancing Translational Sciences (NCATS), 2009).
The campaign covered roughly 230,000 compounds. About 3,600 (1.6%) were called active. This list was built around the results that the source calls inconclusive (neither active nor inactive); the mix of calls is not that of the screen. The call rests on the fitted dose curve; in most records, active means well fitted inhibition curve with a large enough effect (not every such curve was filed as active); inconclusive means small, poorly fitted or top-dose-only effect, or another doubt; inactive means no such curve, though single readings can be large or run the other way. A potency beside an inconclusive call is a rough fit, not a confirmed value.
Further: nearly all actives have a fitted effect of over 50% in size.
Potency means the concentration at half of the fitted maximal effect; tags describe the fitted curve by direction and shape.

What follows are compounds tested against Lysine-specific demethylase 4E (Homo sapiens) (UniProt B2RXH2) (assay: qHTS Assay for Inhibitors of Human Jumonji Domain Containing 2E (JMJD2E)). Conditions: JMJD2E catalytic domain, FDH-coupled NADH fluorescence (FDH is formaldehyde dehydrogenase); series mostly up to 57.1 µM.
UniProt B2RXH2, sequence (B2RXH2 whole entry, looked up, the tested form may be a part): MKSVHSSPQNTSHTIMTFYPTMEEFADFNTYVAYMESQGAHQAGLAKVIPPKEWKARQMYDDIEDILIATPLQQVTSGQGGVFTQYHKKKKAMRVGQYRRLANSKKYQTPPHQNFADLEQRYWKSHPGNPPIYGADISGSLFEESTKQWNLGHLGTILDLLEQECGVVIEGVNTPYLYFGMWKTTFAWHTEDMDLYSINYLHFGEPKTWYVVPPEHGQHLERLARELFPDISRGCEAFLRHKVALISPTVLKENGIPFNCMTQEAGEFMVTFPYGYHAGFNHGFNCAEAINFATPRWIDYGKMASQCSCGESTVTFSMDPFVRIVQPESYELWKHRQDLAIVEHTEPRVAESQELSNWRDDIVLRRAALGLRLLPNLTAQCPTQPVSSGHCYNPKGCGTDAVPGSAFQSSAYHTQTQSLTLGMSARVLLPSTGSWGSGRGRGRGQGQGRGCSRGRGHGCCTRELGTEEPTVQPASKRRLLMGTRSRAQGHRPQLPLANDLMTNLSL
For `CN(CCc1ccc(Cl)c(Cl)c1)CCN1CCCCCC1`, the Potency was “inactive”. For `O=C(O)c1cc(=O)c2ccccc2o1`, the Potency was inconclusive: 39.8 µM [inhibitor, single point]. With `CCOP(=O)(OCC)/C(C#N)=C/c1c[nH]c2ccccc12` the Potency was “inactive”. `Cc1cc(=O)oc2cc(OCC(=O)OC(C)C(=O)NC3CCCC3)ccc12` (configuration not stated) was tested, and the Potency was inconclusive: 28.2 µM [inhibitor, partial curve]. With `O=C(Nc1ccc2c(c1)OCO2)c1cccs1` the Potency was “inactive”. With `O=C(NCCc1csc(-c2ccccc2)n1)c1c(F)cccc1Cl` the Potency was “inactive”. With `Cc1ccc(-c2nn3c(C)nnc3c3ccccc23)cc1S(=O)(=O)NCCN1CCOCC1` the Potency was inconclusive: 28.2 µM [inhibitor, single point]. `CC(C)c1ccc(S(=O)(=O)c2ccc(NN)cc2)cc1` was tested, and the Potency was inconclusive: 22.4 µM [inhibitor, single point]. In the case of `Cc1ccc(OCCCN2CCCC2)c(C)c1`, the Potency is reported as inconclusive: 39.8 µM [inhibitor, single point]. For `Cc1c(N=C2NN=C(c3c[nH]c4ccccc34)CS2)c(=O)n(-c2ccccc2)n1C`, the Potency was inconclusive: 39.8 µM [inhibitor, single point]. For `Cc1c(OCc2nn[nH]n2)ccc2c3c(c(=O)oc12)CCCC3`, the Potency was inconclusive: 25.1 µM [inhibitor, partial curve]. For `O=C1c2cc([N+](=O)[O-])cc3cc([N+](=O)[O-])cc(c23)C(=O)N1c1ccccn1`, the Potency was inconclusive: 39.8 µM [inhibitor, single point]. With `Cc1cc2cc(C)c3nnc(SCC(=O)Nc4ccc(S(=O)(=O)N5CCCCC5C)cc4)n3c2cc1C` (configuration not stated) the Potency was “inactive”. For `COc1cc(/C=N/NC(=O)CN(CCc2ccccc2)S(=O)(=O)c2ccc(NC(C)=O)cc2)cc(OC)c1OC`, the Potency was inconclusive: 39.8 µM [inhibitor, single point]. `Cc1ccc(NC(=O)COC(=O)CCC(=O)c2ccc(Cl)cc2)cc1S(=O)(=O)N(C)C` was tested, and the Potency was “inactive”. `CN1C(=O)/C(=C/c2cc(C(C)(C)C)c(O)c(C(C)(C)C)c2)NC1=S` was tested, and the Potency was “inactive”. In the case of `Cc1c(Br)cc(C(=O)NCc2ccco2)c(C)c1C`, the Potency is reported as “inactive”. In the case of `CCn1c(SCC(=O)c2ccc(O)c(O)c2)nnc1-c1ccccc1`, the Potency is reported as active: 12.6 µM. In the case of `N#Cc1nc(-c2ccc(OCc3ccccc3)cc2)oc1NCCCN1CCOCC1`, the Potency is reported as inconclusive: 31.6 µM [inhibitor, partial curve]. For `COc1cc(/C=N/NC(=O)CC#N)cc(Br)c1O`, the Potency was inconclusive: 28.2 µM [inhibitor, single point]. `COc1ccc(C2C(C(C)=O)=C(O)C(=O)N2c2cccnc2)c(OC)c1` (configuration not stated) was tested, and the Potency was “inactive”. With `Cc1ccccc1-c1cc2c(nn1)-c1ccccc1C2=O` the Potency was inconclusive: 10 µM [inhibitor, partial curve]. With `O=C(O)CCCC(=O)Nc1ccc(OCc2nc3ccccc3s2)cc1` the Potency was inconclusive: 28.2 µM [inhibitor, partial curve]. With `O=C(NCc1ccc2c(c1)OCO2)c1ccc(CSCc2cccc(Cl)c2)o1` the Potency was “inactive”. In the case of `CCN(CC(=O)NC(C)C)C(=O)[C@@H](NC(=O)c1ccco1)C(C)C`, the Potency is reported as “inactive”. For `CCCc1cc(-c2[nH]ncc2-c2ccc(C(=O)OCC)o2)c(O)cc1O`, the Potency was inconclusive: 14.1 µM [inhibitor, partial curve]. In the case of `Cc1ccc(C(=O)NNC(=O)c2ccco2)cc1`, the Potency is reported as inconclusive: 8.91 µM [inhibitor, single point]. For `c1ccc(N2CC[N+]3(CCCC3)CC2)nc1`, the Potency was inconclusive: 31.6 µM [inhibitor, single point]. `COC(=O)c1ccc(C(NC(=O)OCc2ccccc2)/C(I)=C/[C@@H](C)C(=O)Nc2ccccc2)cc1` (some centres not stated) was tested, and the Potency was “inactive”. With `Cc1cccn2c(CN(C)CCC3CCCCO3)c(C(=O)N3CCCCC3)nc12` (configuration not stated) the Potency was “inactive”. For `COc1ccc(/C=N/NC(=O)CNC(=O)C2COc3ccccc3O2)cc1OC` (configuration not stated), the Potency was “inactive”. In the case of `Cc1ccc(C#N)c(SCC(=O)Nc2nccs2)n1`, the Potency is reported as “inactive”. In the case of `CC(C)Oc1cccc(-c2cc(C(=O)NC(=S)N(C)c3ccccc3C(=O)O)c3ccccc3n2)c1`, the Potency is reported as inconclusive: 31.6 µM [inhibitor, partial curve]. `COCc1nc(-c2ccc(-c3ccc(OC)cc3)nc2OC)no1` was tested, and the Potency was inconclusive: 31.6 µM [inhibitor, partial curve]. For `CC(C)CNC(=O)c1coc(=O)c(Br)c1`, the Potency was inconclusive: 31.6 µM [inhibitor, single point]. In the case of `CC(=O)c1sc2nc(-c3cccs3)ccc2c1N`, the Potency is reported as inconclusive: 35.5 µM [inhibitor, partial curve]. For `COc1ccc(-c2nn(-c3ccccc3)cc2C2CC(c3cccs3)=NN2C(=O)CCCC(=O)O)cc1` (configuration not stated), the Potency was inconclusive: 28.2 µM [inhibitor, single point]. In the case of `CCOC(=O)c1cn2nc(Oc3ccc(C#N)cc3)ccc2n1`, the Potency is reported as inconclusive: 31.6 µM [inhibitor, partial curve]. With `COc1ccc(C(=O)C2CCCN(Cc3sc(N4CCCC4)nc3Cl)C2)c(OC)c1` (configuration not stated) the Potency was inconclusive: 39.8 µM [inhibitor, single point]. For `CC1CCCN(C(=O)CSc2nnc3n(C4CCCC4)c(=O)c4ccccc4n23)C1` (configuration not stated), the Potency was inconclusive: 35.5 µM [inhibitor, single point]. In the case of `CCN(CC)S(=O)(=O)c1ccc(OC)c(-n2cnnn2)c1`, the Potency is reported as inconclusive: 39.8 µM [inhibitor, single point]. In the case of `COc1ccc2c(C(=O)CN3CCSCC3)c[nH]c2c1`, the Potency is reported as inconclusive: 28.2 µM [inhibitor, single point]. In the case of `CCc1c(C)c2ccc(OCC(=O)N(C)C)c(C)c2oc1=O`, the Potency is reported as inconclusive: 28.2 µM [inhibitor, partial curve]. With `COc1ccc(CNC(=O)C2=C(C)C(=O)OC23CCC(C)CC3)cc1` (configuration not stated) the Potency was “inactive”. `COC(=O)C1=C(C)N(CCCC(=O)O)C(=O)NC1c1ccc(-c2ccccc2)cc1` (configuration not stated) was tested, and the Potency was “inactive”. `Cn1c(NCCO)nc2c(c1=O)C1(CCCCC1)Cc1ccccc1-2` was tested, and the Potency was inconclusive: 22.4 µM [inhibitor, partial curve]. `Cc1ccc(NC(=O)COC(=O)c2cc(C)nc3ccccc23)c([N+](=O)[O-])c1` was tested, and the Potency was “inactive”.
